Data: the supplement of paper PMC3334620
Whole data set: some 33,000 sequences, median “E-score (-0.5 to 0.5)” near -0.043, cut for the highest 2% near 0.37. This is one part of the list.

The sequences below were run against T1, Upc2 (UniProt Q12151) (assay: PBM E-score (8-mer binding enrichment) (E-score (-0.5 to 0.5)); higher = stronger / more preferred TF binding; most listed sequences are background and not binding sites). Details: protein concentration: 200 nM; construct: GST-full length.
T1 sequence: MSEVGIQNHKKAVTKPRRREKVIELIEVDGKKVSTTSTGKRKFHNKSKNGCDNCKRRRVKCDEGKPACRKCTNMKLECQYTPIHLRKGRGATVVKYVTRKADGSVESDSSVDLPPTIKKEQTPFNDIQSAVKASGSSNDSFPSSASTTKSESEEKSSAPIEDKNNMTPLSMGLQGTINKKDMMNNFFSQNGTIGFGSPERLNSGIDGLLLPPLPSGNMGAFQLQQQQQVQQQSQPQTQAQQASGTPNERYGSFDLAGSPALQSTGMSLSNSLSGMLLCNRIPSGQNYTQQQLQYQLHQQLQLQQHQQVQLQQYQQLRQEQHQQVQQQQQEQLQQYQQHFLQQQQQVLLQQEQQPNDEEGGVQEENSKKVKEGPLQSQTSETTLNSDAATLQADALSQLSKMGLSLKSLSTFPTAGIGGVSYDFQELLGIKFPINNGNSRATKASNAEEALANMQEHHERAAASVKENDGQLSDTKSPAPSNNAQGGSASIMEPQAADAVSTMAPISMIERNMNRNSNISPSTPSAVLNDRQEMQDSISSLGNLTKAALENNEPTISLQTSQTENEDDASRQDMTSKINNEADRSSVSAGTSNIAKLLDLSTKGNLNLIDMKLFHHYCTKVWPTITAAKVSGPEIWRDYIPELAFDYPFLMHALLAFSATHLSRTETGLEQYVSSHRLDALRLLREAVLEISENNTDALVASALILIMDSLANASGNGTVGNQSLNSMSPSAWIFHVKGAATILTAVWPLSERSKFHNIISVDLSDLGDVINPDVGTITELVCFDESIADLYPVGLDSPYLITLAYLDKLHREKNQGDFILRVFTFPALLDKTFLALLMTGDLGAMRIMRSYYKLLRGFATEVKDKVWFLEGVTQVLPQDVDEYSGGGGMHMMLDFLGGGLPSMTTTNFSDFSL
Outline: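 Universal all-10-mer Agilent arrays, fresh or stripped once, were converted to double-stranded form by primer extension. GST-tagged yeast transcription factors from PURExpress in vitro transcription/translation, full-length or DNA-binding domain only, were applied at about 100-200 nM and detected with fluorescent anti-GST. After masliner normalisation, the Universal PBM Analysis Suite scored each ungapped eight-base word together with its reverse complement by E-score.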

Row | Sequence | PBM E-score
1 | GACATATA | 0.0812
2 | CATTTTAC | 0.266
3 | ATTCATTC | 0.0864
4 | AGGCCCCT | -0.211
5 | TACTGCGA | 0.0604
6 | CACGGACA | -0.229
7 | GTGTGCCA | -0.0946
8 | CTGTGAGA | -0.223
9 | AAGCGCTC | 0.0466
10 | ATTCCTAC | -0.145
11 | AAGTCAAT | -0.14
12 | ATTATCCG | 0.176
13 | AGTCACGA | -0.18
14 | CGTTACTA | 0.0805
15 | CCGGAGGC | -0.239
16 | CTCTCACA | -0.293
17 | CGTTCTGA | 0.166
18 | GCAGTTCA | -0.143
19 | AGAACTCG | 0.0484
20 | CAGGTTTC | -0.0524
21 | CCGGGTTA | 0.00954
22 | AAGACCGA | 0.0569
23 | AGCGCTAT | 0.0932
24 | AACGTTAT | 0.0892
25 | ATTGCGGG | -0.134

Row | Sequence | PBM E-score
26 | CCGGATCG | -0.0403
27 | ACGTAACT | 0.054
28 | CTCATTCC | -0.31
29 | ACATACCA | -0.0855
30 | GGTCGGGA | 0.0566
31 | CGCATGGC | -0.0423
32 | GAAAGACA | -0.0745
33 | CGGCAATC | -0.0433
34 | AGTATTTG | 0.00187
35 | GATGACGC | 0.0864
36 | AGAGCAAC | -0.073
37 | GATTCCTA | -0.188
38 | ACTAGAAA | -0.0843
39 | AACCCAAC | 0.00517
40 | TAGTCCCA | -0.12
41 | ATGAAGCA | -0.321
42 | ACTTTGAC | 0.0294
43 | CTCAATAC | 0.0135
44 | GTTCATGA | 0.225
45 | AGCGCATG | -0.241
46 | CATTAGCG | 0.197
47 | AGCAGAAA | 0.174
48 | ATGCTCAG | -0.202
49 | AGAGATGA | -0.204
50 | GTTGCTGA | -0.0941

Row | Sequence | PBM E-score
51 | CCTTTTCC | -0.107
52 | ACAAACAC | 0.0554
53 | GGTCAACA | -0.142
54 | CATTTTGC | -0.109
55 | CATCAACC | -0.00214
56 | AACCAGCG | -0.0712
57 | AGGGATAC | -0.00979
58 | CAACACCA | -0.0541
59 | GGTGATGA | -0.0814
60 | GGAGATGA | -0.253
61 | AAACGAAC | 0.471
62 | CGCTACCA | -0.0165
63 | TACGAGCA | 0.465
64 | AGCTGACG | -0.19
65 | GGACCAAC | -0.188
66 | CGACATGA | 0.0914
67 | TAGCTTCA | -0.203
68 | CTACTTCC | -0.0779
69 | TAGTGATA | -0.00764
70 | CGAGGTAC | 0.316
71 | AAATGGGC | -0.0697
72 | ATATTCTA | 0.0819
73 | CTTCATTA | -0.121
74 | GACGTAGC | 0.0263
75 | ACGCTACG | 0.365

Row | Sequence | PBM E-score
76 | CTGTCCTC | -0.247
77 | GTCAGGTA | -0.0573
78 | ATAGAGCA | -0.144
79 | GTATGTGA | 0.231
80 | CGTAAACA | 0.39
81 | CATATGTA | -0.0834
82 | CACATCGG | 0.0544
83 | GGCACCTA | -0.127
84 | AGCATCTA | -0.164
85 | AGAGAATA | -0.165
86 | AAACATTG | -0.14
87 | AGTAATTC | 0.0634
88 | AGTCGAGC | -0.152
89 | TCCCTTCA | -0.0913
90 | ACACCCAG | -0.225
91 | AATAAGGG | -0.0545
92 | CTATCCAA | -0.195
93 | AACATCGG | -0.0699
94 | ATTTAAGC | 0.168
95 | CGAATCCA | 0.244
96 | TGTATACA | 0.141
97 | GTGCATTA | 0.024
98 | GCAGCCTA | -0.02
99 | TAACATCA | -0.00944
100 | ACCCAGGG | -0.318

Row | Sequence | PBM E-score
101 | GAATCCGC | -0.126
102 | TAGGACGA | -0.217
103 | CCGACCGC | -0.128
104 | ACGCGTCA | 0.214
105 | GTCTGACA | -0.141
106 | AGCTCGCC | 0.108
107 | GCATCACA | -0.0251
108 | GTCTTGCA | -0.146
109 | AATCTACT | -0.107
110 | GCATCGAA | 0.00261
111 | GCCTACAC | 0.147
112 | ATTCGTGG | -0.0645
113 | CTGCGGGA | -0.18
114 | AGACCGTG | -0.229
115 | ACGTGAGC | -0.0218
116 | AACTCTCC | -0.131
117 | AGACATGC | -0.0678
118 | TGCGTGAA | -0.167
119 | CGAAACAG | 0.143
120 | AGGTGCAT | -0.226
121 | CAGCTGTC | -0.125
122 | GCTACCAC | -0.207
123 | AACACCGA | -0.224
124 | AAGGGGTA | -0.188
125 | ATGCATGA | -0.143

Row | Sequence | PBM E-score
126 | CTAGACTC | -0.317
127 | AAGCCTAA | 0.0405
128 | ATACCGTC | 0.0825
129 | AAGTCTCC | -0.0843
130 | CATGAGCA | -0.124
131 | CAATTGTG | 0.00226
132 | CGCAGATC | -0.0933
133 | CGACTACG | 0.182
134 | CTGATACA | -0.0514
135 | AGCCACAC | -0.00233
136 | AAACTCAT | 0.0367
137 | CGGCGCCG | 0.0271
138 | TAAACTCA | 0.0577
139 | CGAGTCAA | 0.0766
140 | CGGCGTCC | -0.128
141 | CGAGCCCA | 0.087
142 | AGTCGCCC | -0.204
143 | ACCGCTAC | 0.14
144 | AAGTCATT | -0.0837
145 | CAATGAGC | -0.258
146 | TATAAAAA | 0.144
147 | AGAGGTAG | -0.248
148 | GCTGGTAA | -0.186
149 | CGGCATCA | 0.0887
150 | CTCGAGAA | 0.0603

Row | Sequence | PBM E-score
151 | GTAAAACA | 0.156
152 | AGTAGTTA | -0.103
153 | AGTCGGAT | 0.114
154 | CGCTATGA | -0.0537
155 | ATGCTAGG | -0.0841
156 | ACTATACA | 0.11
157 | CGAGGGTA | 0.161
158 | TAATATGA | -0.00428
159 | CGTAATGA | 0.191
160 | ATAAGGAT | 0.0152
161 | ACAGCTTA | 0.0103
162 | CTTGAAGA | -0.22
163 | ATTGCGTA | 0.296
164 | AAGTGGCC | -0.287
165 | AAGTACTA | 0.0981
166 | AATGACGT | -0.132
167 | ATAGCTAT | 0.111
168 | CATCCGCG | 0.0291
169 | TGATCCAA | -0.132
170 | AAAAGCTA | 0.024
171 | ATAAAGTA | -0.00136
172 | CACCCTCA | -0.288
173 | AGTACCCA | -0.131
174 | CTGCTCCC | -0.212
175 | TCCTTAAA | -0.0228

Row | Sequence | PBM E-score
176 | GGGTTTTA | 0.0495
177 | ACGCCCGG | -0.136
178 | CGGGGCTA | -0.0798
179 | AAGTCTTG | -0.0567
180 | CTTTACTC | -0.0508
181 | AAATCACG | 0.0508
182 | CCCTCAGC | -0.0983
183 | CCCGCGGC | -0.0659
184 | GGCCTCAA | -0.068
185 | AGCCCCGG | -0.0242
186 | CATACATG | 0.0019
187 | GGGCGCGA | 0.0873
188 | CTCCAAGC | -0.145
189 | AGAGGAAG | -0.244
190 | CAGCCTCC | -0.258
191 | ATGTTACG | 0.276
192 | ACTCGCAA | 0.177
193 | TCCGCAGA | -0.22
194 | ATCCGCGC | 0.0258
195 | AATCTCGG | 0.0584
196 | GATCAACA | -0.117
197 | CGTGAGAC | -0.0838
198 | AAACCTGG | -0.271
199 | CACGAGCA | -0.0761
200 | ACTCAAAC | 0.121

Row | Sequence | PBM E-score
201 | GACTTACC | -0.0121
202 | CTCAGCGC | -0.217
203 | GGGGGGTA | -0.313
204 | AACAATTG | -0.0877
205 | ACAACAGT | -0.158
206 | AACGGCAT | 0.252
207 | CAGATGAC | -0.217
208 | CTACTAGC | 0.0962
209 | ACGACCCC | 0.188
210 | GGCCCCCA | -0.3
211 | CTTACCAA | 0.0826
212 | CTATACCC | 0.0307
213 | TGTCACAA | -0.0828
214 | ACTAACCT | 0.042
215 | CGGACGAG | -0.165
216 | AATGAATA | 0.0213
217 | GTACCGCA | 0.254
218 | CCAACACG | 0.0432
219 | GCCTGTCC | 0.0313
